# According to the supplement of paper PMC12355420:
# Counter-ions that a name gives are not always drawn. The list shows a part of the results. No stated cut-off is given here; in the data, active = 0.5 or less and inactive = the rest. Single values are uncertain, as repeats are few or missing.
# Tested on: HeLa VPS33A R498W KI + HA-SDC1-FLAG;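 further: HA-SDC1 level read out by In-Cell Western staining with an anti-HA antibody against the N-terminal tag, screening FDA-approved library drugs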
# Experiment: relative GAG core protein HA-SDC1 amount per cell number vs DMSO (fraction of DMSO); higher = more SDC1 (GAG core protein)
# Conditions: 50 µM; 24 h
row,Structure (SMILES),relative GAG core protein HA-SDC1 amount per cell number
1,NCC(CC(=O)O)c1ccc(Cl)cc1 (racemic) [(±)-Baclofen],inactive: 0.902
2,COc1cc2c(cc1OC)C1CC(=O)C(CC(C)C)CN1CC2 (configuration not stated) [Tetrabenazine],inactive: 0.682
3,O=P1(N(CCCl)CCCl)NCCCO1 (configuration not stated) [Cyclophosphamide monohydrate],inactive: 1.22
4,COc1ccc2[nH]cc(CCN)c2c1 [5-Methoxytryptamine],inactive: 0.843
5,N[C@@H]1C[C@H]1c1ccccc1 [Tranylcypromine hydrochloride],inactive: 0.849
6,CN(C)NC(=O)CCC(=O)O [Daminozide],inactive: 1.1
7,CCOC(=O)Nc1ccc(NCc2ccc(F)cc2)cc1N [Retigabine],inactive: 0.958
8,CNCC(O)c1ccc(O)cc1 (configuration not stated) [Synephrine],inactive: 0.61
9,Cc1cc(C(C#N)c2ccc(Cl)cc2)c(Cl)cc1NC(=O)c1cc(I)cc(I)c1O (configuration not stated) [Closantel Sodium],active: 0.381
10,O=C1CC[C@@]2(O)[C@H]3Cc4ccc(O)c5c4[C@@]2(CCN3CC2CC2)[C@H]1O5 [Naltrexone HCl],inactive: 0.995
11,O=C(O[C@H]1C[C@H]2CC[C@@H](C1)[N+]21CCCC1)C(O)(c1ccccc1)c1ccccc1 [Trospium chloride],inactive: 0.995
12,COc1ccc(C(CN(C)C)C2(O)CCCCC2)cc1 (configuration not stated) [Venlafaxine],inactive: 1.34
13,CC(C)c1cccc(C(C)C)c1O [Propofol],inactive: 0.911
14,CC(C)N(CCNC(=O)CN1CCCC1=O)C(C)C [Pramiracetam],inactive: 0.864
15,C[C@]12CCC(=O)C[C@@H]1CC[C@@H]1[C@@H]2CC[C@]2(C)[C@@H](O)CC[C@@H]12 [Dihydrotestosterone(DHT)],inactive: 0.894
16,CCC1(c2cccc(O)c2)CCCCN(C)C1 (configuration not stated) [Meptazinol HCl],inactive: 0.952

# Tested on: HeLa VPS33A KO + NLuc-VPS33A R498W;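 further: screen of an FDA-approved drug library, NanoLuc luminescence read after lysing the treated cells, taken as a measure of mutant VPS33A protein stability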
# Experiment: relative mutant VPS33A R498W amount (NanoLuc luminescence) vs DMSO (fraction of DMSO); HeLa model of a glycosaminoglycan (GAG) storage disease; KI is knock-in and KO knock-out; SDC1 is syndecan 1; higher = higher mutant VPS33A level
# Conditions: 50 µM; 24 h
row,Structure (SMILES),relative mutant VPS33A R498W amount
1,NCC(CC(=O)O)c1ccc(Cl)cc1 (racemic) [(±)-Baclofen],1.1
2,COc1cc2c(cc1OC)C1CC(=O)C(CC(C)C)CN1CC2 (configuration not stated) [Tetrabenazine],0.755
3,O=P1(N(CCCl)CCCl)NCCCO1 (configuration not stated) [Cyclophosphamide monohydrate],1.24
4,COc1ccc2[nH]cc(CCN)c2c1 [5-Methoxytryptamine],1.04
5,N[C@@H]1C[C@H]1c1ccccc1 [Tranylcypromine hydrochloride],1.22
6,CN(C)NC(=O)CCC(=O)O [Daminozide],1.26
7,CCOC(=O)Nc1ccc(NCc2ccc(F)cc2)cc1N [Retigabine],1.38
8,CNCC(O)c1ccc(O)cc1 (configuration not stated) [Synephrine],1.1
9,Cc1cc(C(C#N)c2ccc(Cl)cc2)c(Cl)cc1NC(=O)c1cc(I)cc(I)c1O (configuration not stated) [Closantel Sodium],0.943
10,O=C1CC[C@@]2(O)[C@H]3Cc4ccc(O)c5c4[C@@]2(CCN3CC2CC2)[C@H]1O5 [Naltrexone HCl],1.25
11,O=C(O[C@H]1C[C@H]2CC[C@@H](C1)[N+]21CCCC1)C(O)(c1ccccc1)c1ccccc1 [Trospium chloride],1.13
12,COc1ccc(C(CN(C)C)C2(O)CCCCC2)cc1 (configuration not stated) [Venlafaxine],1.01
13,CC(C)c1cccc(C(C)C)c1O [Propofol],0.672
14,CC(C)N(CCNC(=O)CN1CCCC1=O)C(C)C [Pramiracetam],1.41
15,C[C@]12CCC(=O)C[C@@H]1CC[C@@H]1[C@@H]2CC[C@]2(C)[C@@H](O)CC[C@@H]12 [Dihydrotestosterone(DHT)],1.25
16,CCC1(c2cccc(O)c2)CCCCN(C)C1 (configuration not stated) [Meptazinol HCl],1.55
